Experimental data reported in PubChem BioAssay AID485294 (National Center for Advancing Translational Sciences (NCATS), 2010).
Among all 370,000 compounds or so, about 150 (0.041%) were called active. This list was built around the results that the source calls inconclusive (neither active nor inactive); the mix of calls is not that of the screen. Calls follow the shape of the dose curve; as a rule, active = well fitted inhibition curve with a large enough effect; inconclusive = small, poorly fitted or top-dose-only effect; inactive = flat fitted curve, though single readings scatter. Potencies of inconclusive entries are left out as doubtful fits.

target: Beta-lactamase (Escherichia coli (strain K12)) (UniProt P00811); test: qHTS Inhibitors of AmpC Beta-Lactamase (assay with detergent); conditions: AmpC hydrolysis of nitrocefin, absorbance 480 nm, 0.01% Triton; activity change, negative = inhibition: at 114 µM (top of the series); also: nearly all actives have a fitted effect of over 25% in size;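 as to activity change, negative = inhibition: 0% = no-compound wells and -100% = no-enzyme wells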
How it was run: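 20 mM phosphate pH 7.0 + 0.01% (detergent screen) or 0.0001% Triton X-100; 5.3 nM AmpC reagent; cpd preinc 15 min RT; nitrocefin (800 uM stock) to start; A480 q20 s × 4 min; Activity was normalised to no-enzyme and no-compound control wells.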
Potency is read from the fitted curve at half-maximal effect; tags tell the direction and shape of the fitted curve.

Sequence of UniProt P00811 (P00811 whole entry, looked up): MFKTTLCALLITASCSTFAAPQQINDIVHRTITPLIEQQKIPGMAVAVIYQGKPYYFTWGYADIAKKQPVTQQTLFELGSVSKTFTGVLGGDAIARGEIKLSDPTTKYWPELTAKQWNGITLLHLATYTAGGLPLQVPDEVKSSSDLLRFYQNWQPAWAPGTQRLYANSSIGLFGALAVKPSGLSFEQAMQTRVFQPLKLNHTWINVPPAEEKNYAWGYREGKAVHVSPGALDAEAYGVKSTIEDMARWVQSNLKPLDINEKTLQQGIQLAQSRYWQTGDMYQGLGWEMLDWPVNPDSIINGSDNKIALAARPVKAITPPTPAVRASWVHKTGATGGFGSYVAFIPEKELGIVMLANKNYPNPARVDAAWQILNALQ

| Structure (SMILES) | Potency | activity change, negative = inhibition |
| --- | --- | --- |
| [N-]=[N+]=NC[C@H](Cc1ccccc1)N1CCN(Cc2ccccc2)CCC1=O | inconclusive [inhibitor, full curve, poor fit] |  |
| N#CCc1nc(CSc2nc3ccccc3o2)cs1 | inconclusive [inhibitor, partial curve] |  |
| O=C(CN1c2ccccc2Sc2ccccc21)N/N=C/c1ccccc1 |  | inactive: -0.355% |
| Cc1ccc(NC(=O)CCNC(=O)N2C[C@H]3C[C@@H](C2)c2cccc(=O)n2C3)c(C)c1 | inconclusive [inhibitor, full curve] |  |
| CCCCOc1ccc(N2CC(C(=O)NCc3ccco3)CC2=O)cc1 (stereo unspecified) | inconclusive [inhibitor, partial curve, poor fit] |  |
| COc1cccc(CCC(=O)N(C)C2CCCN(Cc3ccccc3F)C2)c1 (stereo unspecified) | inconclusive [inhibitor, full curve] |  |
| CS(=O)(=O)N(CC(=O)Nc1ccc(Br)cc1)C1CCCCC1 | inconclusive [inhibitor, single point] |  |
| COc1cc(/C=N/NC(=O)CCn2c3ccccc3c3ccccc32)cc(OC)c1OC | inconclusive [inhibitor, single point] |  |
| Cc1ccc(C(C(=O)Nc2ccc(C(C)C)cc2)N(C)C(=O)c2ccc(=O)[nH]c2)cc1 (stereo unspecified) | inconclusive [inhibitor, full curve, poor fit] |  |
| Nc1c2c(nc3sc4c(c13)CCCC4)CCCCC2 |  | inactive: -0.933% |
| CN(Cc1ccccc1)C(=S)NC(=O)c1cccs1 |  | inactive: -17.1% |
| CC12COC3(C(=O)Nc4ccc(Cl)cc4)CC1CCC32C (stereo unspecified) | inconclusive [inhibitor, partial curve] |  |
| O=C(Cn1nc(Cc2ccncc2)c2ccccc2c1=O)N1CCN(C(=O)c2ccco2)CC1 | inconclusive [inhibitor, partial curve] |  |
| Cc1ccc(S(=O)(=O)N2CCN(C(=O)CC(C)n3cncn3)CC2)cc1C (stereo unspecified) |  | inactive: 2.47% |
| COCCCNC(=O)c1cc(OC)c(OC)c(OC)c1 | inconclusive [inhibitor, single point] |  |
| Cn1c(=NC(=O)C2CC2)sc2cccc(F)c21 | inconclusive [inhibitor, partial curve, poor fit] |  |
| Nc1c(C(=O)NCc2ccco2)c2nc3ccccc3nc2n1CCc1ccc(F)cc1 |  | inactive: -2.59% |
| CCOC(=O)c1c(C)sc2c1N(C(=O)CN1CCOCC1)c1cc(Cl)ccc1S2 | inconclusive [inhibitor, full curve] |  |
| CSc1nsc(SCCN2C(=O)c3ccccc3C2=O)n1 | inconclusive [inhibitor, full curve, poor fit] |  |
| Cc1ccccc1NS(=O)(=O)c1ccc(C2CNC(=O)C2)cc1 (stereo unspecified) | inconclusive [inhibitor, single point] |  |
| O=[N+]([O-])c1ccccc1OCCCN1CCc2ccccc2C1 | inconclusive [inhibitor, partial curve] |  |
| O=C(NC(Cc1ccccc1)C(=O)O)C1CCCCC1 (stereo unspecified) | inconclusive [inhibitor, partial curve] |  |
| Cc1cc(=O)[nH]c(SCC(=O)Nc2cccc3ccccc23)c1C#N | inconclusive [inhibitor, single point] |  |
| Cc1ccn2c(=O)c(C(=O)NCCN3CCOCC3)c(O)nc2c1 | inconclusive [inhibitor, full curve, poor fit] |  |

| Structure (SMILES) | Potency | activity change, negative = inhibition |
| --- | --- | --- |
| Cc1cc(C)n2c(SCC(=O)NC3CCCC(C)C3C)nnc2n1 (stereo unspecified) | inconclusive [inhibitor, partial curve, poor fit] |  |
| CCCCNC(=O)CCCn1c(=O)c2ccccc2n(CC(=O)Nc2ccccc2OCC)c1=O |  | inactive: 17.4% |
| COc1cccc(C(=O)Nc2ccccc2OC(F)(F)F)c1 |  | inactive: 1.68% |
| COc1ccccc1N1CCN(CC(=O)c2ccc3ccn(C(C)=O)c3c2)CC1 |  | inactive: -8.27% |
| Cc1noc(/C=C/c2cccs2)c1S(=O)(=O)N1CCC(C(=O)NCc2ccccc2Cl)CC1 |  | inactive: -1.18% |
| COc1cc(C2N=C(c3ccccc3)NO2)cc(Br)c1O (stereo unspecified) |  | inactive: -10.1% |
| Cc1ccc(/C=N/Nc2ncc(Cl)cc2Cl)s1 | inconclusive [inhibitor, partial curve] |  |
| CN(C)/C=C(\C#N)c1nc2ccccc2[nH]1 | inconclusive [inhibitor, full curve] |  |
| C=CCc1c(C)nc(N2CCSCC2)[nH]c1=O |  | inactive: 5.14% |
| O=C(c1ccco1)N1CCN(CC(=O)N(C2CCCCC2)C2CCS(=O)(=O)C2)CC1 (stereo unspecified) | inconclusive [inhibitor, partial curve, poor fit] |  |
| CCOc1ccc(S(=O)(=O)N2CCN(C(=O)c3oc4ccc(OC)cc4c3C)CC2)cc1 | inconclusive [inhibitor, full curve, poor fit] |  |
| NNC(=O)c1oc2ccccc2c1-n1cccc1 | inconclusive [inhibitor, full curve, poor fit] |  |
| O=C1C=C(Nc2ccc(F)cc2)c2ccccc2C1=O |  | inactive: -16.4% |
| CCOC(=O)c1cnc(SCC)[nH]c1=O | inconclusive [inhibitor, partial curve] |  |
| CCOC(=O)N1CCC(NC(=O)C2CCCN2C(=O)OCc2ccccc2)CC1 (stereo unspecified) | inconclusive [inhibitor, full curve, poor fit] |  |
| CC(C)(C)c1ccc(S(=O)(=O)N2CCC(N3CCCCC3)CC2)cc1 | inconclusive [inhibitor, full curve] |  |
| C/C(=N\Nc1ccccn1)c1ccc(S(=O)(=O)NCc2ccco2)cc1 | inconclusive [inhibitor, full curve, poor fit] |  |
| COc1ccc(-c2nn3c(-c4ccccc4C)nnc3c3ccccc23)cc1 |  | inactive: 21.1% |
| CCOc1ccc(CCNC(=O)COC(=O)c2cccc(S(=O)(=O)N3CCCCC3)c2)cc1OCC | inconclusive [inhibitor, partial curve] |  |
| CNC(=S)NC1CC2CCCC(C1)N2Cc1ccco1 (stereo unspecified) |  | inactive: -4.52% |
| Cc1c(C(=O)Oc2cccc3cccnc23)cccc1[N+](=O)[O-] |  | inactive: -2.46% |
| CSc1nc(N)c(C(=O)NC2CCCCC2)s1 |  | inactive: -0.657% |
| O=C(COc1ccccc1)Nc1nnc(-c2ccccc2)o1 | inconclusive [inhibitor, full curve, poor fit] |  |
| CCOC(=O)c1sc(NC(=O)c2ccncc2)c(C#N)c1C | inconclusive [inhibitor, full curve] |  |

| Structure (SMILES) | Potency | activity change, negative = inhibition |
| --- | --- | --- |
| CN(C)CCOC(=O)COc1ccc(Cl)cc1 | inconclusive [inhibitor, full curve] |  |
| Cc1ccc(-c2nnc(SCC(=O)N/N=C/c3cccs3)n2-c2ccc(C)cc2)cc1 | inconclusive [inhibitor, single point] |  |
| CN1CCc2c(sc3c2C(=O)NC(c2cn(Cc4ccccc4)c4ccccc24)N3)C1 (stereo unspecified) | inconclusive [inhibitor, full curve] |  |
| CCC1Oc2ccccc2N(CC(=O)NCCC2=CCCCC2)C1=O (stereo unspecified) |  | inactive: -4.44% |
| CCOC(=O)c1sc(NC(=O)C2c3ccccc3Oc3ccccc32)c(C(=O)OCC)c1C |  | inactive: -3.67% |
| CNC(=S)NN(C)c1nc(C)cc(C)n1 | inconclusive [inhibitor, full curve, poor fit] |  |
| CCn1cc(C(=O)NCc2ccccc2Cl)c(=O)c2cc(S(=O)(=O)N3CCc4ccccc4C3)ccc21 |  | inactive: 3.87% |
| COc1cccc(C(=O)NCCS(=O)(=O)NCc2cccs2)c1 | inconclusive [inhibitor, partial curve, poor fit] |  |
| COCCCNC(=O)c1ccc2c(c1)N(Cc1ccccc1)C(=O)c1ccccc1S2 |  | inactive: 0% |
| CCN(CC)c1ccc2c(C)c(-c3ccc(N)cc3)c(=O)oc2c1 | inconclusive [inhibitor, partial curve] |  |
| CCOC(=O)c1ccc(Nc2ccc([N+](=O)[O-])cn2)cc1 | inconclusive [inhibitor, full curve, poor fit] |  |
| CCOC(=O)CN1CC23C=CC(O2)C(C(=O)NC2CCCC2)C3C1=O (stereo unspecified) | inconclusive [inhibitor, full curve, poor fit] |  |
| N/C(=N\NC(=O)c1cccs1)c1cc2cc(Cl)ccc2oc1=O |  | inactive: -12.7% |
| CC(=O)N1N=C(c2ccc(C)c([N+](=O)[O-])c2)OC1(C)C |  | inactive: 2.68% |
| CCOC(=O)NN1C(=O)c2ccccc2NC1c1ccccc1F (stereo unspecified) | inconclusive [inhibitor, single point] |  |
| O=C(O)C(O)(c1ccccc1)C1CCCC1 (stereo unspecified) | inconclusive [inhibitor, partial curve, poor fit] |  |
| COc1ccccc1CNS(=O)(=O)c1ccc2c(c1)NC(=O)CC(=O)N2 |  | inactive: -2.09% |
| CCOc1ccc(/C=C/C(=O)c2c(O)c3ccccc3oc2=O)cc1 |  | inactive: -4.5% |
| Fc1ccc(C2=CC(c3ccco3)n3nnnc3N2)cc1 (stereo unspecified) |  | inactive: 2.48% |
| Cc1cc(NC(=O)c2cnn3c(C(F)(F)F)cc(-c4ccc(Br)cc4)nc23)no1 | inconclusive [inhibitor, single point] |  |
| COc1ccc(NC(=O)COC(=O)c2ccc(F)cc2F)cc1 | inconclusive [inhibitor, full curve] |  |
| CC(C)c1ccc(NC(=O)C2CCCN(S(=O)(=O)c3ccc4c(c3)C(C)(C)C(=O)N4C)C2)cc1 (stereo unspecified) | inconclusive [inhibitor, partial curve, poor fit] |  |
| NS(=O)(=O)c1ccc(NC(=S)NC(=O)c2cccnc2)cc1 | inconclusive [inhibitor, full curve, poor fit] |  |
